Values joined by “and” are separate entries in the source; they are usually repeats but may differ in a detail not shown here. Equal entries are not always repeated. ± gives the uncertainty stated by the source. In all, about 9,900 compounds were measured (“viability index relative to DMSO control”: median about 1, lowest 2% from about 0.85 on). Some of the results follow.

This test relates to Plasmodium falciparum NF54 stage V gametocytes. Briefly: viability index relative to DMSO control (fraction); higher = less gametocyte killing. Particulars: 2.5 µM, incubation time: 72 h. The gist of the method:
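P. falciparum NF54 stage V gametocytes (serum-free medium, 0.75% gametocytemia, 1.25% hematocrit) were exposed to compound at 2.5 µM for 72 hr at 37°C under low oxygen, then stained with MitoTracker Red CMXRos and saponin for one to two hours. Red particles of 20–70 µm2 in one field per well were counted, and the viability index is that count scaled to the plate mean of solvent-only wells.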

Setting [1] is: library set: Broad Institute DOS.

`CCCNC(=O)N1[C@@H](C#N)[C@H](c2ccc(-c3ccccc3F)cc2)[C@@H]1CO`: under setting [1], the viability index worked out at 1.05 ± 0.04. As for `O=C(NCc1ccc2c(c1)OCO2)[C@H]1[C@H](CO)[C@H]2Cn3c(cccc3=O)[C@@H]1N2Cc1cncnc1`, the viability index under setting [1] was 1.09 ± 0.035. Still for that read-out and setting: next, `C/C=C/c1ccccc1[C@@H]1[C@@H](CO)N(c2ncc(CC)s2)[C@H]1C#N`: 1.12 ± 0.12; `COc1cccc(NC(=O)C[C@H]2CC[C@H]3[C@H](COc4ccc(NC(=O)C5CC5)cc4C(=O)N3C)O2)c1`: 1.16 ± 0.098; `O=C(C[C@@H]1C[C@H]2c3cc(NS(=O)(=O)c4ccccc4)ccc3O[C@H]2[C@H](CO)O1)NCC(F)(F)F`: 1.07 ± 0.016. Under setting [1], `C/C=C/c1ccc([C@H]2[C@@H](CO)N(C(=O)C3CCC3)C23CN(C(=O)NC(C)C)C3)cc1` registered a viability index of 1.08 ± 0.055. Same read-out and setting: to `N#C[C@@H]1[C@H](c2ccccc2/C=C/c2ccccc2)[C@H](CO)N1S(=O)(=O)c1cccc(F)c1` belongs 1.11 ± 0.11; to `COc1cccc(-c2ccc3c(c2)O[C@@H](CN(C)Cc2cccnc2)[C@H](C)CN([C@@H](C)CO)S3(=O)=O)c1`, 0.8736 ± 0.0086; to `O=C1CN(S(=O)(=O)Cc2ccccc2)C[C@@H]2[C@@H](c3ccc(C#Cc4ccccc4)cc3)[C@H](CO)N12`, 1.05 ± 0.013.

In the case of `C[C@@H]1CN([C@@H](C)CO)C(=O)c2cc(NC(=O)Cn3cnnn3)ccc2O[C@H]1CN(C)Cc1ccc(C(=O)Nc2ccccc2N)cc1`, the viability index under setting [1] is 1.002 ± 0.0028. On the same count and under the same terms, to `CCCN1C[C@H](C)[C@H](OC)CN(C)C(=O)c2cc(NC(=O)C3CCC3)ccc2OC[C@@H]1C` belongs 1.11 ± 0.018; to `COc1ccc(S(=O)(=O)N(C)C[C@@H]2OCCCC[C@H](C)Oc3ccc(NC(=O)Cc4ccccc4)cc3C(=O)N([C@@H](C)CO)C[C@H]2C)cc1`, 0.911 ± 0.17; to `C[C@@H]1CCCCO[C@@H](CN(C)C(=O)NC2CCCCC2)[C@@H](C)CN([C@H](C)CO)C(=O)c2cc(N(C)C)ccc2O1`, 1.07 ± 0.02.

Consider `Cc1ccc(S(=O)(=O)N2C[C@H](O)COC[C@@H]3O[C@@H](CC(=O)NCc4ccc5c(c4)OCO5)CC[C@H]32)cc1`, for which the viability index under setting [1] is 1.02 ± 0.049. On to `COc1ccc2c3c([C@H](CO)N(C[C@]33CN(C)C3)C(=O)Cc3ccccc3)n(C)c2c1`, for which the viability index under setting [1] was determined as 0.984 ± 0.081.

With `O=C(C[C@H]1CC[C@H]2[C@@H](COC[C@H](O)CN2Cc2ccc(Oc3ccccc3)cc2)O1)N1CCN(c2ccccc2)CC1`, under setting [1], the viability index was 1.06 ± 0.071. Compound `C[C@H]1CN([C@@H](C)CO)C(=O)c2ccccc2-c2ccccc2CO[C@H]1CN(C)S(=O)(=O)c1cccs1` gave a viability index under setting [1] of 1.03 ± 0.15. Turning to `Cc1ccc(S(=O)(=O)N(C)C[C@H]2OCCCC[C@@H](C)Oc3ccc(NC(=O)c4ccncc4)cc3C(=O)N([C@@H](C)CO)C[C@@H]2C)cc1`, the viability index under setting [1] worked out at 1.05 ± 0.14. Compound `CN1c2ccc(Br)cc2[C@@H]2[C@@H](CCN2C(=O)c2ccc(F)cc2)[C@H]1CO` had a viability index under setting [1] of 1.08 ± 0.091.

For `COc1cccc(NC(=O)N2[C@H](CO)[C@@H](c3ccccc3)[C@H]2CNCC(C)C)c1`, under setting [1], the viability index stood at 0.952 ± 0.021.

The compound `O=C(Cc1ccccc1)N1CC(=O)N2[C@H](CO)[C@H](c3ccc(C#Cc4ccccc4)cc3)[C@H]2C1` yielded a viability index (library set: Broad Institute Blood Stage) of 0.728 ± 0.097. As for `CN1C(=O)c2cc(NC(=O)c3cccc(F)c3)ccc2OC[C@@H]2O[C@@H](CC(=O)NCC3CCCCC3)CC[C@H]21`, the viability index under setting [1] was 1.09 and 1.18.

Turning to `CN(C)C(=O)C[C@@H]1C[C@H]2c3cc(NC(=O)c4cccnc4)ccc3O[C@H]2[C@H](CO)O1`, the viability index under setting [1] was found to be 1.0233 ± 0.00094.

Turning to `COc1ccc(NC(=O)N[C@H]2CC[C@@H](CCNC(=O)CN3CCOCC3)O[C@H]2CO)cc1`, the viability index under setting [1] is 0.948 ± 0.034. Same read-out and setting: next, `C[C@H](CO)N1C[C@H](C)[C@@H](CN(C)Cc2cccc3c2OCCCO3)OCc2ccccc2-c2ccccc2C1=O`: 1.06 ± 0.093; `N#C[C@H]1[C@H](c2ccccc2)[C@H](CO)N1C(=O)Nc1cccc(F)c1`: 1.1 ± 0.032. Still for that read-out and setting: to `CC(C)NC(=O)N1[C@H](CO)[C@@H](c2ccccc2-c2ccc(F)cc2)[C@@H]1C#N` belongs 1.15 ± 0.11. Under setting [1], `COc1ccc2c3c([nH]c2c1)[C@H](CO)N(C[C@]31CCN(CC1)C(=O)Nc1ccc(F)cc1F)C(C)=O` showed a viability index of 0.748 ± 0.035.

`CNC[C@H]1Oc2c(NS(=O)(=O)c3ccc(Cl)cc3)cccc2C(=O)N([C@H](C)CO)C[C@H]1C`: the viability index under setting [1] came to 1.02 ± 0.049. For the compound `C[C@@H](O)C#Cc1ccc([C@H]2[C@H](CO)N3CCCCN(C(=O)c4ccc5c(c4)OCO5)C[C@@H]23)cc1`, the viability index under setting [1] came out at 1.03 ± 0.014. Still for that read-out and setting: to `O=C(C[C@@H]1C=C[C@H](NS(=O)(=O)c2ccccc2)[C@@H](CO)O1)NCCN1CCCCC1` belongs 1.159 ± 0.0091.

Under setting [1], `COc1ccc(CN2[C@H](CO)[C@H]3c4ccccc4N(C(=O)NC(C)C)C[C@H]32)cc1` gave a viability index of 1.03 ± 0.057. Same read-out and setting: next, `CCCNC(=O)N1CC[C@@]2(CC1)CN([C@H](CO)c1c2c2ccc(OC)cc2n1C)C(=O)CC1CC1`: 1.048 ± 0.0064; `CCCN1C[C@@H](C)[C@H](OC)CN(C)C(=O)c2cc(NS(=O)(=O)c3ccccc3)ccc2OC[C@@H]1C`: 0.929 ± 0.033; `CCCNC(=O)N1CC2(C1)[C@@H](c1ccccc1)[C@@H](CO)N2C(=O)c1cccnc1`: 1.06 ± 0.044. The compound `COc1ccc(-c2cn(CC[C@H]3CC[C@@H](NC(=O)c4cnccn4)[C@H](CO)O3)nn2)cc1` returned a viability index under setting [1] of 1.11 ± 0.084. With `C[C@@H](O)C#Cc1ccc([C@@H]2[C@H]3CN(C(=O)c4ccc5c(c4)OCO5)CCCCN3[C@H]2CO)cc1`, the viability index under setting [1] worked out at 1.06 ± 0.14. Under setting [1], `C[C@@H]1CC(=O)NCC/C=C\C[C@@H](c2ccc3c(c2)OCO3)NC1=O` registered a viability index of 1 ± 0.047.

Take `C/C=C/c1ccc([C@H]2[C@H]3CN(C(=O)Nc4cccc(OC)c4)CC(=O)N3[C@H]2CO)cc1`: the viability index under setting [1] stood at 1.09 ± 0.061. Regarding `COc1ccc(-c2ccccc2[C@@H]2[C@@H](C#N)N(C(=O)NC3CCCCC3)[C@H]2CO)cc1`, the viability index under setting [1] is 1.01 ± 0.079. Still for that read-out and setting: next, `COc1ccccc1CN1[C@@H](CO)[C@@H]2c3ccccc3N(C(=O)C3CCOCC3)C[C@@H]21`: 1.07 ± 0.1; `CS(=O)(=O)N1[C@H](CO)[C@H](c2ccc(-c3ccccc3F)cc2)[C@@H]1C#N`: 1.11 ± 0.028; `O=C(CCN1CCCCC1)N[C@@H]1CC[C@@H](CCn2cc(-c3cccc(F)c3)nn2)O[C@H]1CO`: 1.04 ± 0.15. `CN(C)CC(=O)N1[C@H](CO)[C@@H](c2ccccc2-c2ccc(C(=O)N(C)C)cc2)[C@@H]1C#N`: under setting [1], the viability index is 1.11 ± 0.096. Regarding `C[C@@H]1CCCCO[C@H](CN(C)Cc2ccc(C(F)(F)F)cc2)[C@H](C)CN([C@H](C)CO)C(=O)c2cc(NC(=O)Nc3cccc4ccccc34)ccc2O1`, the viability index under setting [1] is 1.06 ± 0.029.

Turning to `C[C@H](CO)N1C[C@H](C)[C@@H](CN(C)S(=O)(=O)c2ccc(-n3cccn3)cc2)OCc2cn(nn2)CCCC1=O`, the viability index under setting [1] amounted to 1.008 ± 0.0025. Still for that read-out and setting: next, `COc1ccc2c3c([C@H](CO)N(C)C[C@]33CN(C3)C(=O)C3CCC3)n(C)c2c1`: 0.991 ± 0.062.

Consider `O=C(C[C@@H]1CC[C@@H]2[C@H](COC[C@@H](O)CN2Cc2nccs2)O1)N1CCC(Cc2ccccc2)CC1`, for which the viability index under setting [1] amounted to 1.08 ± 0.048. `CO[C@@H]1CN(C)C(=O)c2ccc(NS(=O)(=O)CC(F)(F)F)cc2OC[C@H](C)N(C(=O)NC(C)C)C[C@@H]1C`: under setting [1], the viability index turned out to be 1.01 ± 0.024. On the same count and under the same terms, next, `N#C[C@H]1[C@H](c2ccccc2C2=CCCCC2)[C@H](CO)N1C(=O)CN1CCOCC1`: 1.14 ± 0.13; `CN1C(=O)c2cc(NC(=O)Nc3ccccc3Cl)ccc2OC[C@H]2O[C@H](CC(=O)O)CC[C@H]21`: 1.03 ± 0.093; `CN(C)C(=O)c1cccc(-c2ccc([C@@H]3[C@H]4CN(CC5CCOCC5)CCCCN4[C@H]3CO)cc2)c1`: 1.02 ± 0.044. As to `CN1C(=O)c2cc(NC(=O)Nc3ccccc3Cl)ccc2OC[C@@H]2O[C@@H](CC(=O)O)CC[C@H]21`, the viability index under setting [1] was 0.986 ± 0.11.

Under setting [1], `COc1cccc(S(=O)(=O)Nc2ccc3c(c2)C(=O)N(C)[C@H]2CC[C@@H](CC(=O)NCC4CCCCC4)O[C@H]2CO3)c1` showed a viability index of 1.02 ± 0.13. Compound `O=C(C[C@H]1CC[C@@H]2[C@H](COC[C@@H](O)CN2C(=O)c2cccnc2)O1)NCC1CC1` showed a viability index under setting [1] of 1.09 ± 0.088. Same read-out and setting: to `Fc1cccc(-c2ccc([C@H]3[C@H]4CNC[C@@H]3N4CC3CCOCC3)cc2)c1` belongs 1.02 ± 0.0019. On the same count and under the same terms, next, `Cc1noc(C)c1NC(=O)N1C[C@@H](O)COC[C@@H]2O[C@@H](CC(=O)N[C@H]3CCN(Cc4ccccc4)C3)CC[C@H]21`: 1.01 ± 0.017.

On to `C[C@@H]1CCCCO[C@H](CN(C)C(=O)Nc2ccc3c(c2)OCO3)[C@@H](C)CN([C@H](C)CO)C(=O)c2cc(NS(=O)(=O)c3ccc(F)cc3)ccc2O1`, for which the viability index under setting [1] came out at 1.09 ± 0.091. The same measure, in the same setting: next, `COc1ccc(C[C@@H]2CCn3nncc3COC[C@@H](CC(C)C)NC2=O)cc1`: 0.973 ± 0.026. Same read-out and setting: to `COCC#Cc1ccc([C@@H]2[C@H]3CN(C(=O)Nc4ccccc4F)CC(=O)N3[C@H]2CO)cc1` belongs 1.07 ± 0.012; to `Cc1noc(C)c1S(=O)(=O)N(C)C[C@H]1OCCCC[C@H](C)Oc2ccc(NC(=O)CCC(F)(F)F)cc2C(=O)N([C@@H](C)CO)C[C@H]1C`, 1.02 ± 0.078; to `O=C(c1cnccn1)N1CC(=O)N2[C@@H](CO)[C@H](c3ccc(C#CC4CC4)cc3)[C@@H]2C1`, 1.02 ± 0.042. Still for that read-out and setting: next, `CO[C@H]1CC[C@@H]2CCOc3ccc(C#N)cc3C(=O)N(C)C[C@H](c3ccccc3)CC(=O)N(C)C[C@@H]1O2`: 1.05 ± 0.084; `Cc1ccccc1-c1ccc2c(c1)O[C@H](CN(C)C(=O)Nc1ccc(C(F)(F)F)cc1)[C@@H](C)CN([C@@H](C)CO)S2(=O)=O`: 0.878 ± 0.12. Take `COc1ccc(NC(=O)Nc2cccc3c2O[C@@H](CN(C)Cc2ccc(C(=O)O)cc2)[C@H](C)CN([C@H](C)CO)C3=O)cc1`: the viability index under setting [1] was 0.981 ± 0.087.

In the case of `CO[C@H]1CN(C)C(=O)c2ccc(NC(C)=O)cc2OC[C@H](C)N(Cc2cccc(F)c2)C[C@H]1C`, the viability index under setting [1] is 1.08 ± 0.037.

Compound `C/C=C/c1ccc([C@H]2[C@@H](CO)N(CC3CC3)C23CN(C(=O)c2ccc4c(c2)OCO4)C3)cc1` showed a viability index under setting [1] of 1.06 ± 0.014.

The compound `CS(=O)(=O)N1[C@@H]2CNC[C@H]1[C@@H]2c1ccc(-c2ccccc2)cc1` returned a viability index under setting [1] of 1.03 ± 0.056.

Under setting [1], `O=C(C[C@H]1CC[C@H]2NC[C@H](O)COC[C@@H]2O1)N1CCc2ccccc2C1` displayed a viability index of 0.988 ± 0.084. On the same count and under the same terms, to `CCCNC(=O)C[C@H]1CC[C@H]2[C@@H](COc3ccc(NC(=O)CC)cc3C(=O)N2C)O1` belongs 1.06 ± 0.048; to `CNC[C@H]1Oc2ccc(NC(=O)NC3CCCCC3)cc2CC(=O)N([C@H](C)CO)C[C@@H]1C`, 1.09 ± 0.053.
